Reference: the supplement of paper PMC11181314
The other results are listed elsewhere or left out. Single values of this set are uncertain.

system: U2OS; experiment: Cell Painting induction (percent of morphological features significantly changed vs DMSO); higher = stronger morphological change; conditions: 10 µM; 20 h; run: confirmation repeat
Protocol: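 Cell Painting assay in U2OS cells: compounds at 10 µM for 20 h, six dyes, 579 robust CellProfiler features as Z-scores vs DMSO median (MAD). Induction is the % of significantly changed features (active if ≥5%); relative cell count is in % of DMSO. The primary run holds DCM compounds preselected for induction ≥10%; the confirmation repeat defines active compounds (370 of 549). Replicate agreement is low, attributed to precipitation.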
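Also: stains mark DNA, RNA and nucleoli, ER, actin, Golgi, plasma membrane and mitochondria, read by high-content imaging, with DMSO controls at matching solvent concentration.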

| Compound | Cell Painting induction |
| --- | --- |
| NC(=O)c1nc(-c2ccncc2)nc2c1nc(O)n2-c1ccc(Cl)cc1 | active: 14.9% |
| CCCN(CCC)CCCNC(=O)CNC(=O)c1nn(-c2ccc(OC)cc2)c(=O)c2ccccc12 | inactive: 3.3% |
| COc1ccc(-c2cc(O)nc(N3CCN(Cc4ccccc4)CC3)n2)cc1 | inactive: 0% |
| O=C(CSc1nc2cc3c(cc2c(=O)n1CCC(=O)N1CCN(c2ccccc2)CC1)OCO3)c1ccc(Cl)cc1 | inactive: 0.3% |
| Cc1ccc(-c2cc(C(F)F)n3ncc(C(=O)N4CCN(c5ccc(F)cc5)CC4)c3n2)cc1 | active: 16.4% |
| O=C(NCC1CCN(Cc2ccc(F)cc2)CC1)Nc1cc(F)ccc1F | active: 31.4% |
| Cc1ccc(NC(=O)C2CCCN(S(=O)(=O)c3c(C)noc3/C=C/N(C)C)C2)c(C)c1 (stereo not given) | inactive: 1.4% |
| COc1ccc(C(=O)NC(=S)N2CCN(c3ccccc3OC)CC2)cc1 | active: 6% |
| COc1ccc(-n2ncc(C(=O)Nc3ccc(OC(F)(F)F)cc3)c2C2CCNCC2)cc1 | active: 67% |
| Cc1ccc2[nH]c(O)c(/N=N/C(=O)C3CC3c3ccccc3)c2c1Br (stereo not given) | active: 9.8% |
| C=CCOc1cccc(C2c3c(oc4ccccc4c3=O)C(=O)N2c2ccccn2)c1 (stereo not given) | inactive: 2.1% |
| CC(C)NC(=O)c1ccc2c(c1)N(Cc1c(F)cccc1Cl)C(=O)c1ccccc1S2 | active: 6.4% |
| CCOc1cc(C#N)c(NC(=O)CSc2nnnn2-c2ccc(OC)cc2)cc1OCC | inactive: 4.7% |
| Cn1cc(C(=O)NCc2ccc(Cl)cc2)c(=O)c2cc(S(=O)(=O)N3CCOCC3)ccc21 | inactive: 0.2% |
| O=C(NCCN1CCN(Cc2ccccc2)CC1)c1ccc(CS(=O)(=O)c2ccc(Br)cc2)o1 | active: 9.5% |
| CCCN(C(=O)Cn1ncc2c3ccccc3nc-2c1O)c1ccccc1C | active: 7.9% |
| COc1ccccc1Nc1nn2c(=O)c3ccc(C(=O)N4CCCCC4)cc3nc2s1 | active: 35.9% |
| COc1nnc(-c2ccc(N3CCCCC3)c(NC(=O)COc3ccccc3)c2)c2ccccc12 | inactive: 1.6% |
| Cc1ccc(Cn2cccc2/C=N/NC(=S)Nc2ccc(C)cc2)cc1 | active: 38% |
| COc1ccccc1N1CCN(CCC(=O)Nc2cccc(F)c2)CC1 | inactive: 1.6% |

same assay, conditions: 10 µM; 20 h; run: primary screen (compounds selected for induction >=10%)

| Compound | Cell Painting induction [%] |
| --- | --- |
| NC(=O)c1nc(-c2ccncc2)nc2c1nc(O)n2-c1ccc(Cl)cc1 | 19.7 |
| CCCN(CCC)CCCNC(=O)CNC(=O)c1nn(-c2ccc(OC)cc2)c(=O)c2ccccc12 | 13.3 |
| COc1ccc(-c2cc(O)nc(N3CCN(Cc4ccccc4)CC3)n2)cc1 | 16.6 |
| O=C(CSc1nc2cc3c(cc2c(=O)n1CCC(=O)N1CCN(c2ccccc2)CC1)OCO3)c1ccc(Cl)cc1 | 22.1 |
| Cc1ccc(-c2cc(C(F)F)n3ncc(C(=O)N4CCN(c5ccc(F)cc5)CC4)c3n2)cc1 | 35.2 |
| O=C(NCC1CCN(Cc2ccc(F)cc2)CC1)Nc1cc(F)ccc1F | 33.9 |
| Cc1ccc(NC(=O)C2CCCN(S(=O)(=O)c3c(C)noc3/C=C/N(C)C)C2)c(C)c1 (stereo not given) | 15.9 |
| COc1ccc(C(=O)NC(=S)N2CCN(c3ccccc3OC)CC2)cc1 | 11.7 |
| COc1ccc(-n2ncc(C(=O)Nc3ccc(OC(F)(F)F)cc3)c2C2CCNCC2)cc1 | 49.2 |
| Cc1ccc2[nH]c(O)c(/N=N/C(=O)C3CC3c3ccccc3)c2c1Br (stereo not given) | 33 |
| C=CCOc1cccc(C2c3c(oc4ccccc4c3=O)C(=O)N2c2ccccn2)c1 (stereo not given) | 43.4 |
| CC(C)NC(=O)c1ccc2c(c1)N(Cc1c(F)cccc1Cl)C(=O)c1ccccc1S2 | 19.2 |
| CCOc1cc(C#N)c(NC(=O)CSc2nnnn2-c2ccc(OC)cc2)cc1OCC | 12.1 |
| Cn1cc(C(=O)NCc2ccc(Cl)cc2)c(=O)c2cc(S(=O)(=O)N3CCOCC3)ccc21 | 21.9 |
| O=C(NCCN1CCN(Cc2ccccc2)CC1)c1ccc(CS(=O)(=O)c2ccc(Br)cc2)o1 | 10.7 |
| CCCN(C(=O)Cn1ncc2c3ccccc3nc-2c1O)c1ccccc1C | 15.7 |
| COc1ccccc1Nc1nn2c(=O)c3ccc(C(=O)N4CCCCC4)cc3nc2s1 | 22.1 |
| COc1nnc(-c2ccc(N3CCCCC3)c(NC(=O)COc3ccccc3)c2)c2ccccc12 | 17.8 |
| Cc1ccc(Cn2cccc2/C=N/NC(=S)Nc2ccc(C)cc2)cc1 | 40.6 |
| COc1ccccc1N1CCN(CCC(=O)Nc2cccc(F)c2)CC1 | 14.3 |
